Data: publication PMC9605988, “Juxtaposition of Bub1 and Cdc20 on phosphorylated Mad1 during catalytic mitotic checkpoint complex assembly” (Nature Communications, 2022)
No constants are given. Whether binding was seen depends on the method and setting. Some results given as binding are weak or reduced against the parent protein; the word gives no strength.

T1: Mad1^CTD R617E/K619D mutant (UniProt Q9Y6D9)
T1 sequence: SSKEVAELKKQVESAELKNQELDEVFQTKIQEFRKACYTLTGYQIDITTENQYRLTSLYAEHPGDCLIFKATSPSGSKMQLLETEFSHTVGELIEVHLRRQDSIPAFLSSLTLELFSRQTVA

T2: Mad1^CTD phosphorylated at Thr716 (pMad1^CTD) (UniProt Q9Y6D9)
T2 sequence (chain, phosphothreonine at 716 (pThr716)): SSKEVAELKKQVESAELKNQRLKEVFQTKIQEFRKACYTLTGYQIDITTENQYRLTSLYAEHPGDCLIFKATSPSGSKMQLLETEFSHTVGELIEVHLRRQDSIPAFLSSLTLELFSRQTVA


How the values were obtained:
[1] = biological target: T1, Mad1^CTD R617E/K619D mutant; assay: SEC-MALS; Superdex 75 or Superdex 200 Increase 10/300 GL, 0.5 ml/min; about 100 μl at ~3.0 mg/ml; Mad1^CTD dimer to Cdc20^N 1:1.2; proteins also run alone; both purified
[2] = biological target: T2, Mad1^CTD phosphorylated at Thr716 (pMad1^CTD); assay: as above
[3] = biological target: T2, Mad1^CTD phosphorylated at Thr716 (pMad1^CTD); assay: NMR titration; Cdc20 α1 or Box1 peptide titrated to 15N-labelled Mad1^CTD or pMad1^CTD; chemical shift perturbations in 1H,15N HSQC; 298 K; both purified

Row | Molecule | binding [1] | binding [2] | binding [3]
1 | MAQFAFESDLHSLL [Cdc20 α1 peptide] | – | – | binds weakly
2 | Cdc20^N (N-terminal truncation of Cdc20, residues 1-73) (domain or fragment, human, UniProt Q12834 1-73, looked up, human Cdc20, residues 1-73; also called Cdc20^1–73; wild-type Cdc20^N; source: E. coli Rosetta 2 (DE3), purified (TALON, TEV cleavage, HisTrap, Resource S, Superdex 75); not shown: His6, N-terminal, cleaved; MBP, N-terminal, cleaved) MAQFAFESDLHSLLQLDAPIPNAPPARWQRKAKEAAGPAPSPMRAANRSHSAGRTPGRTPGKSSSKVQTTPSK | no binding (tested: ~3.0 mg/ml injected) | – | –

Next, values leading:

Row | binding [1] | binding [2] | binding [3] | Molecule
3 | no binding (tested: ~3.0 mg/ml injected) | no binding (tested: ~3.0 mg/ml injected) | – | Cdc20^N E7R/D9K mutant (from UniProt Q12834 1-73) (domain or fragment)
4 | – | no binding (tested: ~3.0 mg/ml injected) | – | Cdc20^N RRK/SSS mutant (Arg27, Arg30, Lys31 to Ser) (domain or fragment, human, UniProt Q12834 1-73, looked up, human Cdc20, residues 1-73; The purification (with tag cleavage) is told for Cdc20^N; likely the same for the mutant; source: site-directed mutant of the Cdc20^N construct, purified) MAQFAFESDLHSLLQLDAPIPNAPPASWQSSAKEAAGPAPSPMRAANRSHSAGRTPGRTPGKSSSKVQTTPSK
